Drawing on article PMC6703689, this text covers binding for 1 molecule.

Amino acid sequences for entries named in this document (tags omitted).
UniProt Q86WV6: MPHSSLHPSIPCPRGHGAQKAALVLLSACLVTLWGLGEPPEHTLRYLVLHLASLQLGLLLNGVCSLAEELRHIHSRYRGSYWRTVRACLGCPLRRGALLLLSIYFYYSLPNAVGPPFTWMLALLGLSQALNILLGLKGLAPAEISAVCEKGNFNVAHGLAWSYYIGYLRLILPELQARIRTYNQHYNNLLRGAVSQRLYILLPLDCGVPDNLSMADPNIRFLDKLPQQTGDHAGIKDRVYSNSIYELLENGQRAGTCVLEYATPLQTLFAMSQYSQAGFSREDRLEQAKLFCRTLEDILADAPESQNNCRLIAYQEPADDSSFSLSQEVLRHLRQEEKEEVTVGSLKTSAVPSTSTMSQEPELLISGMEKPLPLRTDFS
UniProt Q7Z434: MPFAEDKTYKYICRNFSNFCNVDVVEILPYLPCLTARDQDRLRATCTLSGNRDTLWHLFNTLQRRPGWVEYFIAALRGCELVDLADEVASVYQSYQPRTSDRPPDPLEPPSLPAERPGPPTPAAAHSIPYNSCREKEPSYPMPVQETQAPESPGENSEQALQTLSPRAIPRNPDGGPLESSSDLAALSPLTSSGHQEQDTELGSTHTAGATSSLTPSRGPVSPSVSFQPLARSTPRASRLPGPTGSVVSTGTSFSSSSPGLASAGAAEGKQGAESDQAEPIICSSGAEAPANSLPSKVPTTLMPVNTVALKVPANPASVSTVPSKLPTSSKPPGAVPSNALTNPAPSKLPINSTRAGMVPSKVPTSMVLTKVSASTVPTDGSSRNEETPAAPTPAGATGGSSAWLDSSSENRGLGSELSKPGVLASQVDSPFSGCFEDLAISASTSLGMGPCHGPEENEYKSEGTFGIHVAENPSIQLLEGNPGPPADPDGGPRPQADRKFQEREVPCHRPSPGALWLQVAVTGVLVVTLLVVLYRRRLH

No constants are given. Whether binding was seen depends on the method and setting. Binding seen in cells or lysates may run through a third protein. Some entries that bind do so weakly or less than the wild type. Where a sequence is shown, tags or fusion partners need not be part of it.

What all share (test): co-IP; HEK293 cells transiently transfected with the indicated plasmids; NP-40 lysis buffer (20 mM Tris-HCl pH 7.4, 150 mM NaCl, 1 mM EDTA, 1% NP-40); immunoprecipitation and immunoblotting
The target in one assay is T1, IRF3 (UniProt Q14653).
T1 sequence: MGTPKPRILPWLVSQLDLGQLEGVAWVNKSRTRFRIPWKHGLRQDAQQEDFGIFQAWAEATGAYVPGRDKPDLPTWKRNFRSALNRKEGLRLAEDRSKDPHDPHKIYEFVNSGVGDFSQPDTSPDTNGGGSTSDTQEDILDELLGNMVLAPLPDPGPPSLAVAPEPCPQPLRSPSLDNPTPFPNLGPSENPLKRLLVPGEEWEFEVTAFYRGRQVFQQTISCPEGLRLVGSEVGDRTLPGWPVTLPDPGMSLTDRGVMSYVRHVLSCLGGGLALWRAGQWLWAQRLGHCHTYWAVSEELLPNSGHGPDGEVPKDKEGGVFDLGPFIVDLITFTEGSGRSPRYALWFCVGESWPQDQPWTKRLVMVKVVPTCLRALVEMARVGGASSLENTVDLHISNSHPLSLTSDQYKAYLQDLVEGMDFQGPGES

Assay [1] concerns the target T2, MDA5, transfected (human) (UniProt Q9BYX4).
T2 sequence: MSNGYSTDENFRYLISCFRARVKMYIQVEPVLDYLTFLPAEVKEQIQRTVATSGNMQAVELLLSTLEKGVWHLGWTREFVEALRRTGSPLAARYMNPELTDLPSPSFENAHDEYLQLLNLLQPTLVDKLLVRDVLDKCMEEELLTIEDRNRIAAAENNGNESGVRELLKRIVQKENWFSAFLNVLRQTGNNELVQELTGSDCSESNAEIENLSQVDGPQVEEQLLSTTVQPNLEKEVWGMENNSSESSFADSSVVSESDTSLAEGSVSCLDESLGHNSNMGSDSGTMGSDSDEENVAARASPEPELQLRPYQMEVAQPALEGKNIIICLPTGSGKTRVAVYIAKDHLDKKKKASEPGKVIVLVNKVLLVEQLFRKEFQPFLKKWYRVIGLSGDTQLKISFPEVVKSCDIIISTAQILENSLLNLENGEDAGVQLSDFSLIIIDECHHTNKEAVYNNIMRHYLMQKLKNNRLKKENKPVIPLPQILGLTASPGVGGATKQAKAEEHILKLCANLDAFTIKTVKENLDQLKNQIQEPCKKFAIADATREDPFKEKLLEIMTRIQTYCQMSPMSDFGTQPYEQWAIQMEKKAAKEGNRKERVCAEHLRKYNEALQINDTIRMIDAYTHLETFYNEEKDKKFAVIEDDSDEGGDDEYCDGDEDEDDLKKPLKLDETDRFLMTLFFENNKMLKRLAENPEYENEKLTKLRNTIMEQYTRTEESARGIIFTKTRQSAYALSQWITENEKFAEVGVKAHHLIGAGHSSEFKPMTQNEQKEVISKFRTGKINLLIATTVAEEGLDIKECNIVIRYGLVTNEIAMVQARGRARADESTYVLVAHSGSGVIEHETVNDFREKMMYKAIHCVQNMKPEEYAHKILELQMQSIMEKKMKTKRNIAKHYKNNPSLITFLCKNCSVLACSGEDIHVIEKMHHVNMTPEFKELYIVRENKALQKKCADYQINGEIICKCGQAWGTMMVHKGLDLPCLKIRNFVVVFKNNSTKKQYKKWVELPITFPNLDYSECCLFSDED

In another assay the target is MITA (UniProt Q86WV6).
Another assay has as its target VISA (UniProt Q7Z434).
The target of assay [2] is T3, retinoic acid-inducible gene-I (RIG-I), transfected (human) (UniProt O95786).
T3 sequence: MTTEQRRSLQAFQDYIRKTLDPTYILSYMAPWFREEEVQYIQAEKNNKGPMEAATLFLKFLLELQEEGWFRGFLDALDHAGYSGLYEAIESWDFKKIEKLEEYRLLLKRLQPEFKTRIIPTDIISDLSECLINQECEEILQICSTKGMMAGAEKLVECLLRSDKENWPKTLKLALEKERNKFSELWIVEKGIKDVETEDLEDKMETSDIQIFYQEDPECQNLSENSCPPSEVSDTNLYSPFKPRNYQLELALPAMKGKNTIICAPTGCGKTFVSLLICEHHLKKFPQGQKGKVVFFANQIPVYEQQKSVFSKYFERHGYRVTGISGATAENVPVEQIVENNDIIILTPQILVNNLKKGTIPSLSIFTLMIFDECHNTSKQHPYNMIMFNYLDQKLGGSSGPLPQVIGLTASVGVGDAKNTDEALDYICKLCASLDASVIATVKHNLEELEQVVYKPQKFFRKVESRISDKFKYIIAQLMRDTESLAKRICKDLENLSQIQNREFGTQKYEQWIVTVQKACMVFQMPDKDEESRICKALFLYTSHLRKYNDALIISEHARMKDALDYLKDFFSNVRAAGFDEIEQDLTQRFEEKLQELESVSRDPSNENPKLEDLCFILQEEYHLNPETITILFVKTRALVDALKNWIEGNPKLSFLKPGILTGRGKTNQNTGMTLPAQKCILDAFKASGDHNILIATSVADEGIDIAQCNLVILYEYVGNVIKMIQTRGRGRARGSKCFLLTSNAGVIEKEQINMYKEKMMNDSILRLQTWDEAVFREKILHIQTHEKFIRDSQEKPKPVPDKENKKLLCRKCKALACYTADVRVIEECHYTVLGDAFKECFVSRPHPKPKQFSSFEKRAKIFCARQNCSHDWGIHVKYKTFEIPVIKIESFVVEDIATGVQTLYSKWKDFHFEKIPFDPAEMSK

B1: heterogeneous nuclear ribonucleoprotein M (hnRNPM), Flag- or HA-tagged, transfected (protein, UniProt P52272 1-730)
chain: MAAGVEAAAEVAATEIKMEEESGAPGVPSGNGAPGPKGEGERPAQNEKRKEKNIKRGGNRFEPYANPTKRYRAFITNIPFDVKWQSLKDLVKEKVGEVTYVELLMDAEGKSRGCAVVEFKMEESMKKAAEVLNKHSLSGRPLKVKEDPDGEHARRAMQKVMATTGGMGMGPGGPGMITIPPSILNNPNIPNEIIHALQAGRLGSTVFVANLDYKVGWKKLKEVFSMAGVVVRADILEDKDGKSRGIGTVTFEQSIEAVQAISMFNGQLLFDRPMHVKMDERALPKGDFFPPERPQQLPHGLGGIGMGLGPGGQPIDANHLNKGIGMGNIGPAGMGMEGIGFGINKMGGMEGPFGGGMENMGRFGSGMNMGRINEILSNALKRGEIIAKQGGGGGGGSVPGIERMGPGIDRLGGAGMERMGAGLGHGMDRVGSEIERMGLVMDRMGSVERMGSGIERMGPLGLDHMASSIERMGQTMERIGSGVERMGAGMGFGLERMAAPIDRVGQTIERMGSGVERMGPAIERMGLSMERMVPAGMGAGLERMGPVMDRMATGLERMGANNLERMGLERMGANSLERMGLERMGANSLERMGPAMGPALGAGIERMGLAMGGGGGASFDRAIEMERGNFGGSFAGSFGGAGGHAPGVARKACQIFVRNLPFDFTWKMLKDKFNECGHVLYADIKMENGKSKGCGVVKFESPEVAERACRMMNGMKLSGREIDVRIDRNA
Regarding B1, the binding entry with IRF3 is given as “no binding”; in assay [1], “binds”; with MITA, “no binding”; with VISA it was “no binding”; in assay [2] it was “binds”.
